# Assay results from PubChem BioAssay AID463173 (ICCB-Longwood Screening Facility, Harvard Medical School, 2010).
# In all, about 52,000 compounds went through this assay and about 4,300 (8.3%) were called active. Rule as the data show it: active = survival mostly below about 52% (no sharp cut-off); inactive = mostly above about 56%. The list shows a part of the results.
# System: DeltatarO mutant
# Assay: S. aureus survival, RN4220 and DeltatarO strains – OD600, teichoic acid synthesis inhibitors, primary screen (AID 463173)
# Settings: S. aureus RN4220 wild type/DeltatarO growth, OD600, 18 h, hits give low values, screened at 18.75 µg/mL (by protocol)
row,Compound,survival
1,COc1ccc(N2CCN(S(=O)(=O)c3ccc4c(c3)CC(C)N4C(C)=O)CC2)cc1 (configuration not stated),inactive: 61%
2,CCOc1ccccc1NC(=O)c1cc2c(Cl)nc3ccccc3c2s1,active: 41%
3,COc1ccc(NC(=O)C2Cc3ccccc3N2C(=O)c2ccccc2)c(OC)c1 (configuration not stated),inactive: 80%
4,O=C(CCC1N=C2c3ccccc3N=C(SCc3ccccc3F)N2C1=O)NC1CCCCC1 (configuration not stated),inactive: 71%
5,CCOc1cc(C2C(C(=O)OC)=C(C)NC3=C2C(=O)c2ccccc23)cc(Cl)c1O (configuration not stated),active: 29%
6,Cc1ccc(-n2ncc3c(NCCCN4CCOCC4)ncnc32)cc1,inactive: 88%
7,COc1cccc(-n2c(=O)c3c(C)c(C(=O)N(C)C)sc3n(Cc3ccc(F)cc3Cl)c2=O)c1,inactive: 92%
8,COc1ccc(NC(=O)CN(Cc2ccccc2)S(=O)(=O)c2ccc(C)cc2)cc1Cl,inactive: 110%
9,Fc1ccc(-c2nc(Nc3cccc(Cl)c3)nc3c2COc2ccccc2-3)cc1,inactive: 90%
10,CCn1c2ccccc2c2nnc(N3CCN(c4cc(C)ccc4C)CC3)nc21,inactive: 80%
11,COc1ccc2c(C)c(CCC(=O)NCCc3ccccc3OC)c(=O)oc2c1,inactive: 77%
12,COc1ccc(NCc2cc3cc4c(cc3n(CC(=O)Nc3ccc(F)cc3F)c2=O)OCO4)cc1,inactive: 67%
13,CCC1CCCCN1C(=O)c1ccc2c(c1)N(Cc1cccc(Cl)c1)C(=O)c1ccccc1S2(=O)=O (configuration not stated),inactive: 69%
14,O=C(CN(Cc1ccc2c(c1)OCO2)C(=O)CSc1nc2ccccc2o1)NC1CCCCC1,inactive: 83%
15,COC(=O)CCSc1nc2sc3c(c2c(=O)n1Cc1ccccc1)CCC(C(C)(C)C)C3 (configuration not stated),inactive: 47%
16,CC1=C(C(=O)OC2CCCCCC2)C(c2c(F)cccc2Cl)CC(=O)N1 (configuration not stated),inactive: 57%
17,COc1ccc(N(Cc2cccs2)C(=O)COc2cccc(Cl)c2)cc1,active: 42%
18,Cc1ccc(Cl)cc1NC(=O)c1oc2c(c1C)-c1[nH]ncc1CC2,inactive: 101%
19,CCCCCCSc1n[nH]c(=O)[nH]c1=O,inactive: 78%
20,CCN(CCCNC(=O)c1c(C)oc2ncn(CC(C)C)c(=O)c12)Cc1ccccc1,inactive: 83%
21,Cn1c(=O)n(-c2ccc(F)c(Cl)c2)c(=O)c2sc3ccccc3c21,inactive: 83%
22,CCOC(=O)c1c(Nc2ccc(C)cc2)nnc(-c2ccccc2)c1-c1ccccc1,active: 1%
23,Cc1ccc2c(c1)nnn2C1CCN(C(=O)c2ccccc2)CC1,inactive: 101%

row,Compound,survival
1,CCOc1ccccc1NS(=O)(=O)c1c(-c2ccc(C)cc2)csc1C(=O)OC,inactive: 94%
2,Cc1c2cnn(-c3ccccc3)c(=O)c2c(C)n1CCCC(=O)Nc1ccc(F)cc1F,inactive: 72%
3,O=C(c1ccc2c(Cl)c3c(nc2c1)CCCC3)N1CCN(c2ccccc2)CC1,active: 20%
4,CC(C)(C)C1CCc2onc(C(=O)Nc3sc4c(c3C(N)=O)CCCC4)c2C1 (configuration not stated),active: 45%
5,Cc1c(Cl)cccc1NC(=O)CCS(=O)(=O)c1ccc(Br)s1,inactive: 75%
6,NC(=O)c1cc(S(=O)(=O)NCC2CCC(C(=O)Nc3cccc(Cl)c3)CC2)cs1 (configuration not stated),inactive: 76%
7,Cc1ccc(NC(=O)CSc2nc3ccccc3c3nc(CCn4c(C)nc5ccccc54)nn23)cc1F,inactive: 89%
8,O=C(Nc1ccc(F)c(F)c1)C1CCCN(S(=O)(=O)c2cccc3nonc23)C1 (configuration not stated),inactive: 123%
9,CC1(C)Cc2c(ccc3ccccc23)C(=O)N1,inactive: 98%
10,O=C(NCn1nc(-c2ccccc2)nc1-c1ccccc1)c1cccnc1,inactive: 67%
11,CC1CC(C)CN(CCC(=O)Nc2ccccc2F)C1 (configuration not stated),inactive: 100%
12,Cc1ccc(C)c(N2CCN(C(=O)CN3C(=O)CSc4c3c(C)nn4-c3ccccc3)CC2)c1,inactive: 88%
13,Cc1cc2cc3c(cc2nc1SCCN1CCCC1)OCCO3,inactive: 124%
14,COCCNC(=O)c1ccc2c(c1)N(Cc1cccc(Cl)c1)C(=O)c1ccccc1S2=O (configuration not stated),inactive: 95%
15,Cc1ccc(C)c(NC(=O)CCNS(=O)(=O)c2ccc3c(c2)CCCC(=O)N3)c1,active: -4%
16,CN(C(=O)CSc1nnc2[nH]c(=O)cc(-c3ccccc3)n12)c1ccccc1,inactive: 107%
17,CCOC(=O)c1cc(-c2ccccc2)n(CC(=O)NCc2ccccc2OC)c1C,inactive: 101%
18,Cc1ccc(NCC(=O)N=Nc2c(O)[nH]c3ccccc23)cc1,inactive: 83%
19,Fc1ccc(CNc2ncnc3c2c(-c2ccccc2)cn3-c2ccccc2)cc1,inactive: 116%
20,O=c1cc(O)c2ccccc2[nH]1,inactive: 75%
21,Cn1c(=O)n(C)c2cc(S(=O)(=O)Nc3ccccc3C(=O)O)ccc21,inactive: 105%
22,Cc1ccc(CN2CCN(C3CCN(C(=O)OC(C)(C)C)CC3)C(=O)C2=O)cc1,inactive: 102%
23,CC(C)(C)c1ccc(C(=O)Nc2ccccc2C(=O)OCc2cc(=O)n3ccsc3n2)cc1,inactive: 73%

row,Compound,survival
1,Cc1cc2nc3c(=O)n(C)c(=O)n(C)c3nc2cc1N=CN(C)C,inactive: 74%
2,CCOC(=O)CC(NC(=O)Cn1nnc(-c2ccccc2C)n1)c1ccc(OC)cc1 (configuration not stated),inactive: 56%
3,CCC(=O)N1CCc2cc(Br)cc(S(=O)(=O)CCC(=O)Nc3ccccc3C)c21,inactive: 87%
4,COc1ccc(N(C)C(=O)NCc2noc3ccc(C)cc23)c(OC)c1,inactive: 90%
5,CCCNC(=O)Nc1cc(C(=O)NCc2cccc(OCC)c2)ccc1N1CCCC1,inactive: 67%
6,Cc1cc(C)c2c(=O)cc(CSCC(=O)Nc3nnc(C)s3)[nH]c2c1,inactive: 90%
7,COc1ccccc1NC(=O)CSCc1cc(=O)c2c(C)cc(C)cc2[nH]1,inactive: 80%
8,COc1ccc(C(=O)CCC(=O)Nc2ccccc2C)cc1,inactive: 102%
9,CCC(Sc1nncn2c1cc1sccc12)C(=O)Nc1cccc(OC)c1 (configuration not stated),inactive: 67%
10,CC(C)(C)C1CCc2nc(NC(=O)Cc3ccc(Cl)cc3)sc2C1 (configuration not stated),active: 18%
11,CC(C)(C)C(=O)NC1CCN(CC(=O)Nc2ccccc2)CC1,inactive: 77%
12,CN1CCN(C(=O)/C=C\C(=O)O)CC1,inactive: 105%
13,CCCCc1noc2c1/C(=N\O)CC(c1ccccc1)C2 (configuration not stated),inactive: 86%
14,Cc1cccc(-c2noc(C3CC(=O)N(c4ccc5c(c4)OCCO5)C3)n2)c1 (configuration not stated),inactive: 105%
15,COc1ccc(NC(=O)Cn2c(C)c3cnn(-c4ccccc4)c(=O)c3c2C)c(OC)c1,inactive: 87%
16,Cc1cc(C)n(C(C)CC(=O)O)n1 (configuration not stated),inactive: 95%
17,CCc1ccc(C(=O)c2cn(CC(=O)Nc3ccc(F)cc3)c3cc4c(cc3c2=O)OCO4)cc1,inactive: 124%
18,Cc1cc(OCC(=O)Nc2sc3c(c2C(N)=O)CCCC3)ccc1C(C)C,inactive: 71%
19,COc1ccc(-c2nc(SCC(=O)NCCCc3ccccc3)n[nH]2)cc1,inactive: 89%
20,COc1ccc(NC(=O)CCc2c(C)nn(-c3ccc(N4CCOCC4)nn3)c2C)cc1Cl,inactive: 81%
21,CCN(CC)CCCNC(=O)c1oc2c(c1C)-c1nn(Cc3ccc(Cl)cc3)cc1CC2,inactive: 90%
22,Cc1ccc2occ(CC(=O)Nc3ccc(S(N)(=O)=O)cc3)c2c1,inactive: 117%
23,O=C(CSc1ncn[nH]1)c1ccc(Cl)cc1,inactive: 110%

row,Compound,survival
1,CCOC(=O)CSc1nc2cc3c(cc2c(=O)n1CCCC(=O)NCc1ccc2c(c1)OCO2)OCO3,inactive: 83%
2,COC(=O)CN1C(=O)CSc2ccc(S(=O)(=O)Nc3ccc(Cl)cc3C)cc21,inactive: 124%
3,Cc1ccc2ccc(C(Nc3ccccn3)c3ccccc3)c(O)c2n1 (configuration not stated),active: 39%
4,C=Cc1ccc(CSc2nc(-c3ccc(OC)cc3)nc3c2Cc2c(CO)cnc(C)c2O3)cc1,inactive: 93%
5,CC(C)Cc1nn2c(=O)cc(COC(=O)c3cccc(NC(=O)CCc4ccccc4)c3)nc2s1,inactive: 83%
6,COc1cccc(-c2nc3c(c(SCc4ccccc4)n2)Cc2c(CO)cnc(C)c2O3)c1,inactive: 98%
7,CC(C)(C)NC(=O)CN1CCN(c2nc(-c3ccc(Cl)cc3)cs2)CC1,inactive: 83%
8,NC(=O)c1cc(S(=O)(=O)NCc2ccccc2)cs1,inactive: 110%
9,CN(C(=O)CCNC(=O)Cn1cnc2ccccc2c1=O)c1ccccc1F,inactive: 69%
10,CCCn1c(=O)n(-c2ccccc2)c(=O)c2sc3ccccc3c21,inactive: 83%
11,CCOc1ccc(CCNC(=O)CN2CCN(Cc3ccc(F)cc3Cl)C2=O)cc1OCC,inactive: 75%
12,C=CCc1c(C)nc2nc(SCC(=O)Nc3ccccc3CC)nn2c1C,inactive: 55%
13,Cc1ccc(Nc2c(-c3ccc(C)cc3)nc3cnccn23)cc1,active: 35%
14,COc1ccccc1CNC(=O)Cn1ncc2c(=O)oc3ccc(C)cc3c21,inactive: 78%
15,CCCCC(=O)Nc1cccc(OCc2cc(=O)n3ccccc3n2)c1,inactive: 87%
16,COc1cc(C(=O)Nc2cc(C)ccc2OCc2cc(=O)n3cc(C)sc3n2)cc(OC)c1OC,inactive: 89%
17,Cc1ccccc1CS(=O)(=O)Cc1ccc(C(=O)NCCc2ccccc2)o1,inactive: 86%
18,COc1ccccc1C(=O)Nc1nc2ccc(S(=O)(=O)N3CCCC3)cc2s1,inactive: 73%
19,NCCc1nnc(SCc2ccc(Cl)cc2)o1,inactive: 159%
20,COc1ccccc1OCc1ccoc1C(=O)O,inactive: 92%
21,COc1ccc(C(=O)CN2C(=O)N(c3cc(C)cc(C)c3)S(=O)(=O)c3ccccc32)cc1,inactive: 67%
22,Cc1cccc(NCc2ccc(N(C)C)cc2)n1,inactive: 83%
23,Cc1cccc(NC(=O)C(=O)NCC(c2cccnc2)N2CCOCC2)c1 (configuration not stated),inactive: 76%
